Results as given in PubChem BioAssay AID588855 (National Center for Advancing Translational Sciences (NCATS), 2011).
Screen size: about 410,000 compounds; about 5,000 (1.2%) were called active. The inconclusive results got no clear call from the source; some entries with a clear call stand among them for comparison. Calls follow the shape of the dose curve; as a rule, active = well fitted inhibition curve with a large enough effect; inconclusive = small, poorly fitted or top-dose-only effect; inactive = no such curve, though single readings can be large or run the other way. Potencies beside an inconclusive call are fits to weak or partial responses and may not hold up.

Assay: qHTS for Inhibitors of TGF-b; also: nearly all actives have a fitted effect of over 65% in size
Conditions: HepG2 CAGA-GFP TGF-b/SMAD3 reporter, GFP fluorescence, 18 h, TGF-beta stimulated, 500 pg/mL final; series mostly up to 46.1 µM; activity, negative = inhibition: at the top concentration
Method in brief: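 Cell-based qHTS in HEPG2 carrying a CAGA-GFP Smad reporter; compounds added before 500 pg/mL final TGF-beta, 18 h incubation at 37 degrees C, GFP fluorescence quantified per cell by imaging cytometry.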
% is scaled to controls: 0 for no effect and ±100 for the full control effect; potency is read from the fitted curve at half-maximal effect; tags tell the direction and shape of the fitted curve.

Q: With `O=C(Nc1ccccc1N1CCCC1)c1ccc(Br)o1` as the compound, how does the “activity, negative = inhibition” value read?
A: Its value is inactive: -13.3%.

Q: Which Potency does the source give for `CCC1=NN(C(=O)c2ccc([N+](=O)[O-])cc2)C(O)(c2ccccc2)C1` (configuration not stated) here?
A: The Potency was inconclusive: 20 µM [inhibitor, single point].

Q: With `CC(=O)Nc1nnc(SCc2ccc(F)cc2)s1` as the compound, how does the Potency read?
A: The Potency was inconclusive: 5.62 µM [inhibitor, single point].

Q: With `COC(=O)c1ccccc1SCC(=O)Nc1ccc(N2CCOCC2)cc1` as the compound, how does the “activity, negative = inhibition” value read?
A: The value was inactive: 6.07%.

Q: For `CC1=C(C(=O)N(C)C)CC(CC(=O)NCCCCc2ccccc2)C(=O)N1Cc1ccc(C(C)(C)C)cc1` (configuration not stated), which Potency is on record?
A: The Potency was inconclusive: 15.8 µM [inhibitor, single point].

Q: Which Potency does the source give for `O=C(CN1CCC(NC(=O)c2ccccc2Cl)CC1)NCc1ccco1` here?
A: Its Potency is inconclusive: 35.5 µM [inhibitor, single point].

Q: For `CCCCCNc1c(C(=O)OCC)c(=O)[nH]c2ccccc12`, which “activity, negative = inhibition” value is on record?
A: Its value is inactive: -4.54%.

Q: With `Cc1cccc(NC(=O)C(=O)NNC(=O)c2ccc(C(C)(C)C)cc2)c1` as the compound, how does the “activity, negative = inhibition” value read?
A: Its value is inactive: -1.26%.

Q: Which “activity, negative = inhibition” value does the source give for `COC(=O)c1ccc(/C=C/C(=O)OCC(=O)Nc2sccc2C(N)=O)cc1` here?
A: Its value is inactive: 6.45%.

Q: Which Potency does the source give for `CC(=O)c1sc(-c2ccc(Cl)cc2)cc1N` here?
A: The Potency was inconclusive: 22.4 µM [inhibitor, single point].

Q: For `CC(=O)c1cccc(NS(=O)(=O)c2ccc3[nH]c4c(c3c2)CCCCCC4)c1`, which Potency is on record?
A: The Potency was inconclusive: 35.5 µM [inhibitor, single point].

Q: With `COc1cccc(NC(=O)CN(C)C(=O)c2cccc(S(=O)(=O)Nc3ccc(C)cc3)c2)c1` as the compound, how does the Potency read?
A: Its Potency is inconclusive: 35.5 µM [inhibitor, single point].

Q: For `CC(=O)C1=C(c2ccc(Br)cc2)C(=O)c2ccccc2C1=O`, which Potency is on record?
A: The Potency was inconclusive: 31.6 µM [inhibitor, single point].

Q: For `CCCSc1nnc(CSc2ncccn2)n1C`, which Potency is on record?
A: Its Potency is inconclusive: 3.55 µM [inhibitor, single point].

Q: For `N#Cc1c(Nc2ccc(F)cc2)sc(C(=O)c2ccc(F)cc2)c1N`, which Potency is on record?
A: Its Potency is inconclusive: 17.8 µM [inhibitor, single point].

Q: For `Cc1c(Cl)cccc1NS(=O)(=O)c1ccc2[nH]cc(C(=O)NC3CCCC3)c(=O)c2c1`, which Potency is on record?
A: Its Potency is inconclusive: 35.5 µM [inhibitor, single point].

Q: Which Potency does the source give for `CCOc1ccc(OCC)c(Nc2nc3ccccc3c3nnc(C)n23)c1` here?
A: Its Potency is inconclusive: 6.31 µM [inhibitor, partial curve, poor fit].

Q: For `Cc1ccc2c(c1)c1c(c(=O)n(-c3ccccc3)c(=O)n1CC(=O)N1CCCC1)n2C`, which Potency is on record?
A: Its Potency is inconclusive: 0.1 µM [inhibitor, full curve, poor fit].

Q: With `c1ccc(CNc2ncnc3scc(-c4cccs4)c23)nc1` as the compound, how does the Potency read?
A: Its Potency is inconclusive: 10 µM [inhibitor, partial curve, poor fit].

Q: Which Potency does the source give for `Cc1ccccc1NS(=O)(=O)c1cc(C(=O)N2CCc3ccccc3C2)ccc1C` here?
A: The Potency was inconclusive: 12.6 µM [inhibitor, partial curve, poor fit].

Q: Which Potency does the source give for `COC/C=C/C1=CC2=CC(=O)C(C)(OC(=O)c3cnc4ccccc4n3)C(=O)C2=CN1CCOC` (configuration not stated) here?
A: Its Potency is inconclusive: 35.5 µM [inhibitor, single point].

Q: For `c1ccc(Cn2c(SCc3cn4cccnc4n3)nnc2-c2ccco2)cc1`, which Potency is on record?
A: The Potency was inconclusive: 35.5 µM [inhibitor, single point].

Q: Which Potency does the source give for `CCc1ccc2oc(C(=O)N3CCN(c4ccccc4OC)CC3)cc(=O)c2c1` here?
A: Its Potency is inconclusive: 22.4 µM [inhibitor, partial curve, poor fit].

Q: With `O=C(NCCCn1ccnc1)c1ccc(OCC(F)(F)F)cc1` as the compound, how does the “activity, negative = inhibition” value read?
A: The value was inactive: -1.18%.

Q: For `CCC(C(=O)NCc1ccccn1)n1c2ccccc2c2nc(=O)cc(C)n21` (configuration not stated), which “activity, negative = inhibition” value is on record?
A: The value was inactive: 8.72%.

Q: Which Potency does the source give for `CC(C)C[C@H](NC(=O)c1nc[nH]c1C(=O)N[C@@H](CCCCNC(=O)OC(C)(C)C)C(=O)OC(C)(C)C)C(=O)OCc1ccccc1` here?
A: Its Potency is inconclusive: 11.2 µM [inhibitor, partial curve, poor fit].

Q: For `O=C(c1cc(COc2ccc3ncccc3c2)on1)N1CCC[C@H]1CO`, which Potency is on record?
A: The Potency was inconclusive: 17.8 µM [inhibitor, single point].

Q: Which “activity, negative = inhibition” value does the source give for `COc1cc(C(C)=O)ccc1OCC(O)CN1CCN(c2ccccc2)CC1` (configuration not stated) here?
A: Its value is inactive: -0.218%.

Q: With `N#Cc1ccc(OCC(=O)N2CCN(S(=O)(=O)c3ccc(Cl)s3)CC2)cc1` as the compound, how does the Potency read?
A: Its Potency is inconclusive: 35.5 µM [inhibitor, single point].

Q: For `CCN(C(=O)CSc1nc2scc(-c3ccccc3)c2c(=O)n1C)C1CCS(=O)(=O)C1` (configuration not stated), which “activity, negative = inhibition” value is on record?
A: Its value is inactive: 1.47%.

Q: For `Cc1ccccc1-c1n[nH]c(=S)n1/N=C/C=C/c1ccco1`, which “activity, negative = inhibition” value is on record?
A: Its value is inactive: -12.3%.

Q: Which Potency does the source give for `Cc1ccc(NC(=O)CCn2c(=O)c3cccn3c3ccccc32)c(Cl)c1` here?
A: The Potency was inconclusive: 4.47 µM [inhibitor, partial curve, poor fit].

Q: For `C(=C\c1ccnc2ccccc12)/c1cccs1`, which Potency is on record?
A: Its Potency is inconclusive: 10 µM [inhibitor, partial curve].

Q: Which “activity, negative = inhibition” value does the source give for `COc1ccc(CCNC(=O)CCc2c(C)nc3c(c(C)nn3-c3ccc(C)c(C)c3)c2C)c(OC)c1OC` here?
A: The value was inactive: 1.19%.

Q: With `C[C@@H]1CN([C@H](C)CO)C(=O)c2cc(Br)cnc2O[C@@H]1CN(C)C(=O)Nc1ccccc1` as the compound, how does the “activity, negative = inhibition” value read?
A: Its value is inactive: -9.22%.

Q: With `COc1ccc(/C=C/c2c([N+](=O)[O-])c(=O)n(C)c(=O)n2C)cc1` as the compound, how does the “activity, negative = inhibition” value read?
A: Its value is inactive: -1.35%.

Q: With `NC(=O)c1cccc(-c2cc(Nc3ccc(OC(F)(F)F)cc3)ncn2)c1` as the compound, how does the Potency read?
A: Its Potency is inconclusive: 12.6 µM [inhibitor, single point].

Q: With `COc1ccc(NCc2nnc(SCC(=O)NCc3ccco3)n2-c2ccccc2OC)cc1` as the compound, how does the “activity, negative = inhibition” value read?
A: The value was inactive: 7.25%.

Q: Which Potency does the source give for `CCn1cc(C(=O)N2CCN(c3cccc(C)c3C)CC2)c(=O)c2ccc(C)nc21` here?
A: Its Potency is inconclusive: 35.5 µM [inhibitor, single point].

Q: With `CCCCOc1ccc(CNC(=O)CN2CCSc3ccccc32)cc1` as the compound, how does the Potency read?
A: The Potency was inconclusive: 35.5 µM [inhibitor, single point].

Q: For `O=C1c2[nH]nc(-c3ccccc3O)c2C(c2ccccc2)N1Cc1ccco1` (configuration not stated), which Potency is on record?
A: Its Potency is inconclusive: 22.4 µM [inhibitor, single point].

Q: For `O=C(NC(=S)Nc1nc(-c2ccccc2)cs1)c1cccnc1`, which “activity, negative = inhibition” value is on record?
A: The value was inactive: -1.7%.

Q: Which Potency does the source give for `CCCN(CC(=O)Nc1ccc(C)cc1Br)CC(=O)Nc1ccc(F)c(F)c1F` here?
A: Its Potency is inconclusive: 7.08 µM [inhibitor, full curve, poor fit].

Q: Which “activity, negative = inhibition” value does the source give for `CCc1cccc(NC(=O)CSc2ncc3c(n2)-c2ccc(Cl)cc2N(Cc2ccccc2)S3(=O)=O)c1` here?
A: Its value is inactive: -12.6%.

Q: For `COc1ccc(C(=O)OCC2CC(c3ccccc3)=NO2)cc1OC` (configuration not stated), which “activity, negative = inhibition” value is on record?
A: Its value is inactive: -27.4%.

Q: With `CCc1c(C)sc2c1CCN(C(=O)Nc1cc(OC)c(OC)c(OC)c1)C2c1ccccc1` (configuration not stated) as the compound, how does the Potency read?
A: Its Potency is inconclusive: 22.4 µM [inhibitor, single point].

Q: With `COc1ccc(-n2c(=S)[nH]c3cc(C(=O)N4CCN(c5ccccc5)CC4)ccc3c2=O)c(OC)c1` as the compound, how does the “activity, negative = inhibition” value read?
A: The value was inactive: -1.8%.

Q: For `O=C(Cc1ccc(Br)cc1)N1CCN(c2ccccc2O)CC1`, which Potency is on record?
A: Its Potency is inconclusive: 35.5 µM [inhibitor, partial curve, poor fit].

Q: With `CN1CCN(C(=S)Nc2ccc(Cl)cc2)CC1` as the compound, how does the “activity, negative = inhibition” value read?
A: The value was inactive: -8.29%.

Q: Which “activity, negative = inhibition” value does the source give for `COc1cc2c(cc1OC)C(C)N(C(=O)Nc1ccc(F)cc1)CC2` (configuration not stated) here?
A: Its value is inactive: 4.54%.

Q: With `Cc1cccc(C)c1NC(=O)CNC(=O)C(C)N1CCCCC1` (configuration not stated) as the compound, how does the Potency read?
A: The Potency was inconclusive: 3.98 µM [inhibitor, partial curve, poor fit].

Q: For `CCCOc1c(OC)cccc1C1CC(=O)Nc2cc3c(cc21)OCO3` (configuration not stated), which “activity, negative = inhibition” value is on record?
A: The value was inactive: -1.9%.

Q: With `CCCCCCCCCc1nc2sc3c(c2c(=O)n1NC(=O)c1ccc([N+](=O)[O-])cc1)CC(C)(C)OC3` as the compound, how does the Potency read?
A: Its Potency is inconclusive: 31.6 µM [inhibitor, single point].

Q: With `O=C(CCCCCn1c(=O)c2sccc2n(CC(=O)Nc2cccc(Cl)c2)c1=O)NCc1ccc2c(c1)OCO2` as the compound, how does the Potency read?
A: The Potency was inconclusive: 7.94 µM [inhibitor, partial curve].

Q: With `CCCC(=O)C1=C(O)C(C(=O)OC)C(C)(C)CC1=N` (configuration not stated) as the compound, how does the Potency read?
A: Its Potency is inconclusive: 4.47 µM [inhibitor, single point].

Q: Which Potency does the source give for `O=[N+]([O-])c1cc(S(=O)(=O)N2CCCCCC2)ccc1F` here?
A: The Potency was inconclusive: 25.1 µM [inhibitor, single point].

Q: Which Potency does the source give for `Cc1cc(Br)ccc1NC(=S)NC1CCCC1` here?
A: Its Potency is inconclusive: 2.82 µM [inhibitor, full curve, poor fit].

Q: Which “activity, negative = inhibition” value does the source give for `Cc1cc(C)cc(NC(=S)NC2CC3CCCC(C2)N3C2CCCC2)c1` (configuration not stated) here?
A: Its value is inactive: -23.7%.

Q: Which Potency does the source give for `Cc1ccc(NC(=S)Nc2cccc3cnccc23)c(C)c1` here?
A: The Potency was inconclusive: 0.126 µM [inhibitor, full curve, poor fit].

Q: Which Potency does the source give for `COc1ccccc1/C=C/C(=O)c1ccc(NC(C)=O)cc1` here?
A: Its Potency is inconclusive: 8.91 µM [inhibitor, partial curve, poor fit].

Q: Which Potency does the source give for `Cc1oc(S(=O)(=O)N2CCCCC2)cc1NC(=O)Nc1ccc(F)cc1` here?
A: The Potency was inconclusive: 12.6 µM [inhibitor, single point].

Q: Which “activity, negative = inhibition” value does the source give for `Cc1cccc(C)c1OCc1cc(C(=O)N2CCCC2c2nonc2C)no1` (configuration not stated) here?
A: The value was inactive: -13.6%.

Q: With `COc1cccc(CNc2ccc3c(c2)CCC3)c1` as the compound, how does the Potency read?
A: Its Potency is inconclusive: 28.2 µM [inhibitor, single point].

Q: Which Potency does the source give for `COc1ccc(C2=Nn3c(nnc3-c3ccccc3Cl)SC2)cc1OC1CCCC1` here?
A: The Potency was inconclusive: 35.5 µM [inhibitor, single point].

Q: Which Potency does the source give for `Nc1cc(-c2ccc(Cl)cc2)nn1S(=O)(=O)c1cccc2nsnc12` here?
A: Its Potency is inconclusive: 35.5 µM [inhibitor, single point].

Q: With `CCCC(c1nnnn1C(C)(C)CC)N(CCCO)Cc1cc2cc(C)cc(C)c2[nH]c1=O` (configuration not stated) as the compound, how does the Potency read?
A: The Potency was inconclusive: 35.5 µM [inhibitor, single point].

Q: Which Potency does the source give for `CCCCN1C(=S)SC(C)(C)C1/[N+]([O-])=C/c1ccc(S(=O)(=O)NC)cc1` (configuration not stated) here?
A: Its Potency is inconclusive: 3.16 µM [inhibitor, single point].
